Laboratory results from the supplement of paper PMC11417369.
This is one part of the list.

What follows are sequences tested on PfAP2-HC AP2 domain (GST-tagged) (assay: gcPBM binding intensity (ln(normalized median fluorescence intensity)); higher = stronger DNA binding).
Procedure, shortened: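 An Agilent 4 × 180k array carrying primer-extended double-stranded 36-bp intergenic genomic probes and negative controls received GST-tagged P. falciparum DNA-binding domains expressed in E. coli, about 25 μg on average, for 1 h. The binding buffer contained 1× PBS, 1% milk, 0.2 mg/ml BSA, 0.5% salmon testes DNA and 0.03% Triton X-100. Binding intensity is the top Masliner-normalised natural-log median intensity across replicate spots of either probe orientation, read after Alexa488 anti-GST antibody staining and a 488 nm scan.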

Sequence | gcPBM binding intensity (ln)
ATGGAAAAATGTATATATAAAATAAATATATTATAT [CACACA_negctrl_site1712] | 9.68
CATATTAAAAATACATGTACATATATATTTAATATA [XGTACX_site8580] | 9.51
GTTAAAATAATATTATGTACATATATATAAAAATAT [XGTACX_site8512] | 9.67
TATAAATATGTGTTTACACACAATAATGAATTAAAA [CACACA_site6555] | 9.81
GTTTGTAAATATTTTACACACATATTTATTTATATA [CACACA_site6632] | 9.77
AACCTCAAATACACAAGTACGTATAATAAGGAACAA [XGTACX_site4304] | 9.8
ATTCAATAATTGTTTTTTTTCTTTTTGTTTTTGTTT [GTGCAC_negctrl_site563] | 9.62
TATCTCATTTGGAATTGTACTAACAGATACTTGTTT [XGTACX_site2672] | 9.67
TATACGCATATTTTTACACACATATTTTTTCATATA [CACACA_site2546] | 10.1
TATATATAATATATATGTACATATGTATAATATTTA [XGTACX_site4400] | 9.61
TTATGAAAAAAATACTGTACACAATATGACGAAAGT [XGTACX_site2283] | 9.81
TTTTAAATAAATCATGCATGCACATATAATTATATT [TGCATGCA_site151] | 9.71
CATATTAGGACAAAGTGTACATATATATATATATAT [XGTACX_site1172] | 9.65
AAATTATTGAAATACGCATGTGTTTTTTTTTTTTTT [TGCATGCA_site391] | 9.6
AATATTACGTCTGGACGTACAAATCTTTTTCGTGTC [XGTACX_site6644] | 9.6
ACATTTTTTTTTTTTTTTTTTTTCTTACATCATGCA [CACACA_negctrl_site1413] | 9.54
ATATAAAGGTTTATTAGTACACATTAGAATACTTTT [XGTACX_site4492] | 9.52
TTTTACTAGATATATACACACATTATACCTATAGAT [CACACA_site7530] | 9.87
GAAATATTTTGTTGTGCATGCGACATTAAATAAAAA [TGCATGCA_site331] | 9.59
AAAAAATATATATCACGTGGTAATATATATATATAT [XGTACX_negctrl_site252] | 9.66
TACATCTGTATATAAACACACAACAAAAATGCTTAC [CACACA_site3814] | 9.75
AAATTAAATCCGCACGCACACACACCGATTAATAAA [CACACA_site9321] | 10.2

Sequence | gcPBM binding intensity (ln)
AATATATAAATAGATACACACATACATACATACATA [CACACA_site4301] | 10.2
TTTTTTTTTTTAATATGTACGTAAAATAAGTTTAAA [XGTACX_site6495] | 9.27
TATTATATTTATTTATGTACACATATACTTAAATAA [XGTACX_site1355] | 9.69
TGTAATACAGAAAAAAGTACTAAAAAGAAAAGGATT [XGTACX_site3176] | 9.82
ACACCTATAAATTAAGTGCATTTTTTTTGATGTTAT | 9.71
ACATTCAATCTACTGTGTACATATTAAACTTTGAAA [XGTACX_site2913] | 9.66
TCCTTATAAAAATACACACAAACTTTAATTAAAACA [CACACA_site3730] | 9.86
ATATATATACAACAAGCATGCAGTAATTTTTTTTTT [TGCATGCA_site728] | 9.81
CTATAATAACATAACACACACATGTATTTATAGGTG [CACACA_site6298] | 9.87
TATAAATAGATATATACACACTTGTGCAGAATATTA [CACACA_site7112] | 9.79
CCCAGGTGCTCGTAACGTACTTACATCAAATATTAT [XGTACX_site4617] | 9.68
AGAAGTGTAAAAGTTACACACACAAACTTGTCATTT [CACACA_site4613] | 10.1
AGGCGTGAAATATACGTACACACATTATTTATATTT [CACACA_site2558] | 9.88
AAATAAAAAGTAAAGCGTACAAATGATCAAATAATA [XGTACX_site7898] | 9.84
TAATCAACAAAATCTACACACTAAAATGAAATATAA [CACACA_site3749] | 9.76
AAATATTTATAAATTGCACACAAATAATAACATTAT [CACACA_site8737] | 9.79
ATAATAATATATACATGTACATATATATATATATAT [XGTACX_site3455] | 9.74
TAACATTACTCTTAACTCTTTTGGATACCAACTTAT [XGTACX_negctrl_site82] | 9.79
TAATTATTTTTATATTGTACAATATGTAAATATATA [XGTACX_site592] | 9.39
TTTTTTGAATTTAAAAGTACAGGCTTTTACCAAATA [XGTACX_site1356] | 9.29
AAAAAAAAAAAAAAAAGTACATACAACATTATGAAA [XGTACX_site207] | 9.55
AATTAAAAAAAAAAAAAAAAAAAAAAATGAAAAAAA [CACACA_negctrl_site1073] | 9.24

Sequence | gcPBM binding intensity (ln)
ATAAATAAATAAATCTGTACATATGTATATGTATAT [XGTACX_site4537] | 9.77
ACTTAATTTTTTTTATGTACTTATTTAAAAAATTTT [XGTACX_site2712] | 9.56
CTTAAAGGGAAAAATACACACATATAAATATTATGT [CACACA_site2225] | 9.77
TTAGTAGTATTATGTAGTACATAATTATCATATCAT [XGTACX_site817] | 9.64
AACCCAAAATAATTATGTACATATTTTTAAATATAT [XGTACX_site6487] | 9.73
ATAATCCTTGGACACACACACACACTAGTAAATAAA [CACACA_site4423] | 11.3
TTTGTGTATATAACAGTGCAATATTATAAATATAAA [GTGCAC_site9750] | 9.65
GCAAAGCACAAATATGCATGTAGATATAGAATAATG [TGCATGCA_site382] | 9.59
AAAAAAGAAAAAAAGTGTACAATATTTATTACATAT [XGTACX_site2277] | 9.67
TTTTTTCTTTTTATGTGTACTTATTTTATTTAATAA [XGTACX_site1080] | 9.76
TATATTTCATTATATTGTACAAAATATATATATTAT [XGTACX_site4644] | 9.52
CATTATATATATTACTAAAAATTTTACCCCTTAGCT [CACACA_negctrl_site302] | 9.41
ATGTATATAAATATACGTACATAAATATAAGTATAG [XGTACX_site7155] | 9.67
ATACATGAATAAATATGTACACATATAAAAACATAT [XGTACX_site2740] | 9.85
AACACGCGCAGACACACACACACACGCACATATATA [CACACA_site7104] | 10.9
TTTTTTTTCTTTTTTTTAAGAAATAAATAAATAATT [XGTACX_negctrl_site137] | 8.98
TTTTAACAAAACTAAATAATCATATATATAAGATAT [GTGCAC_negctrl_site298] | 9.26
CATTTCTATATAAGCACACACGTGGAATTTTTTTTT [CACACA_site5537] | 9.85
ATTATTTGAACAACAAAAAAAAAGAAAAGAAAAGAA [CACACA_negctrl_site1031] | 9.51
AAATCGTAATATATTTGTACTTATTTGAAAAATCCA [XGTACX_site8141] | 9.49
TATTTATAAATATGTGTGCACAATTTATTTTATAAT | 9.74
TTATTTCTAACATGATGTACTTTTATATTATATAAT [XGTACX_site3574] | 9.57

Sequence | gcPBM binding intensity (ln)
TTTTTTTTATATATCTGTACATATATATATATATAT [XGTACX_site8280] | 9.84
TATTTTCAAAATGTTGTACACACAAAAAAAAAAAAA [CACACA_site8437] | 9.73
ATATACTTTTCAATGTGTACTTATGAATATATATGT [XGTACX_site7972] | 9.69
ATATATATATATATATGTACATACATATTGTTTGGT [XGTACX_site2284] | 9.78
CAAAATATTTTTTCCTGTACATAATTCCTATTTCAC [XGTACX_site3590] | 9.59
ATATAATAATATGGTTGTACATAAATAACACATGAA [XGTACX_site6592] | 9.77
TAATAATAGAAACACACACACATAGACATATATATA [CACACA_site1307] | 10.5
ATGATTATACAAAATATACACACGTGTAGACAAATA [CACACA_site1175] | 9.94
CACTTAAAAAGCTAACGTACAAATACACATATATAA [XGTACX_site1851] | 9.66
AATATATATATAAATAATATACCTATATATTTTTTG [XGTACX_negctrl_site407] | 9.61
AAAAACAATTTAATCACACATATATGTCACAAAGAT [CACACA_site5043] | 9.81
ATATTAAATATTATCACACACATAATTATTTCCATA [CACACA_site2334] | 9.89
TAATAAATTCATAATTGTACATTGAAGTATTATGCA [XGTACX_site5121] | 9.45
TTTTTTTATTTTGTATGTACATATCATTTGATATTC [XGTACX_site8449] | 9.86
TATACGTATACCTATACACACATATATTTATTTATA [CACACA_site6716] | 9.77
TATATATATAACAGAATGCACTTTATATGTTCATAT [GTGCAC_site9880] | 9.64
GATATCCTTATATTTGCACACACACCCAATAAAATG [CACACA_site1028] | 10.4
AAAAAATACAGACACACACACACACGCATATAAATA [CACACA_site7644] | 10.8
TTGGTAAATATATTTTGAATATAAGAAATATAGACG [CACACA_negctrl_site1634] | 9.58
ATTATTACTATATGTGTACACATCAACTGGTTTGAT [CACACA_site5563] | 9.97
AGTAGCGGCGGTATCATGCACACGTATAGATTGTAA [CACACA_site1587] | 9.77
ATTAAATCCGCACGCACACACACATATTAAGAAAAA [CACACA_site6062] | 10.3
